Experimental data: patent US10501552B2, “Multivalent molecules comprising DR5-binding domains” (MacroGenics, Inc., priority 2015, dated 2019)
Entries after “also recorded” stand apart in the source; their conditions may differ.

B1: DR5 mAb 2 × DR5 mAb 1 Fc diabody: bispecific tetravalent E-coil/K-coil Fc diabody, wild-type IgG1 Fc; chains SEQ ID NO:122 and 124 (protein)
chain 1: DIVMTQSHKFMSTSVGDRVSITCKASQDVNTAVAWYQQKPGQSPKLLIYWASTRHTGVPDRFTGSGSGTDYTLTIKSVQAEDLTLYYCQQHYITPWTFGGGTKLEIKGGGSGGGGEVKFLESGGGLVQPGGSLKLSCVASGFDFSRYWMSWVRQAPGKGLEWIGEINPDSNTINYTPSLKDKFIISRDNAKNTLYLQMTKVRSEDTALYYCTRRAYYGNPAWFAYWGQGTLVTVSAASTKGEVAACEKEVAALEKEVAALEKEVAALEKL[sequence of human IgG1 Fc with C220S (EU numbers) omitted]
chain 2: DIVLTQSPASLAVSLGQRATISCRASKSVSSSGYSYMHWYQQKPGQPPKVLIFLSSNLDSGVPARFSGSGSGTDFTLNIHPVEDGDAATYYCQHSRDLPPTFGGGTKLEIKGGGSGGGGKVQLQQSGAELVKPGASVKLSCKASGYTFTEYILHWVKQKSGQGLEWIGWFYPGNNNIKYNEKFKDKATLTADKSSSTVYMELSRLTSEDSAVYFCARHEQGPGYFDYWGQGTTLTVSSASTKGKVAACKEKVAALKEKVAALKEKVAALKE
modifications: First Polypeptide Chain of an Exemplary DR5 mAb 2 x DR5 mAb 1 Fc diabody; Second Polypeptide Chain of an Exemplary DR5 mAb 2 x DR5 mAb 1 Fc diabody
B2: DR5 mAb 1 × DR5 mAb 2 Fc diabody: bispecific tetravalent E-coil/K-coil Fc diabody, wild-type IgG1 Fc; chains SEQ ID NO:116 and 118 (protein)
chain 1: DIVLTQSPASLAVSLGQRATISCRASKSVSSSGYSYMHWYQQKPGQPPKVLIFLSSNLDSGVPARFSGSGSGTDFTLNIHPVEDGDAATYYCQHSRDLPPTFGGGTKLEIKGGGSGGGGKVQLQQSGAELVKPGASVKLSCKASGYTFTEYILHWVKQKSGQGLEWIGWFYPGNNNIKYNEKFKDKATLTADKSSSTVYMELSRLTSEDSAVYFCARHEQGPGYFDYWGQGTTLTVSSASTKGEVAACEKEVAALEKEVAALEKEVAALEKL[sequence of human IgG1 Fc with C220S (EU numbers) omitted]
chain 2: DIVMTQSHKFMSTSVGDRVSITCKASQDVNTAVAWYQQKPGQSPKLLIYWASTRHTGVPDRFTGSGSGTDYTLTIKSVQAEDLTLYYCQQHYITPWTFGGGTKLEIKGGGSGGGGEVKFLESGGGLVQPGGSLKLSCVASGFDFSRYWMSWVRQAPGKGLEWIGEINPDSNTINYTPSLKDKFIISRDNAKNTLYLQMTKVRSEDTALYYCTRRAYYGNPAWFAYWGQGTLVTVSAASTKGKVAACKEKVAALKEKVAALKEKVAALKE
modifications: First Polypeptide Chain of an Exemplary DR5 mAb 1 x DR5 mAb 2 Fc diabody; Second Polypeptide Chain of an Exemplary DR5 mAb 1 x DR5 mAb 2 Fc diabody

Tests used:
Hs746T [1] = assay: […]-GLO cell viability assay with vorinostat; type: cell-based; conditions: Hs746T (Stomach); 1 μg/ml + 10 μM Vorinostat
ES2 = assay: MTS cell proliferation assay; type: cell-based; conditions: ES2 (Ovary); no cross-linking antibody
Procedure: (§1) Cell lines obtained from ATCC were cultured under standard tissue culture conditions. Each cell line was plated at ˜2×10^4 cells/well (in 96-well plates), and incubated overnight in F12/DMEM media supplemented with 10% FBS. […] Cell viability was determined using Promega CellTiter 96® AQeous Non-Radioactive Cell Proliferation Assay (Cat # G5430) essentially as described in the manufacturer's instructions to assay the amount of soluble formazan produced by cellular reduction of the MTS, which is a measure of the number of viable cells in the culture. Briefly, MTS/PMS regent was added to the wells and the absorbance at 490 nm (referenced at […]) was read in a Molecular Devices ThermoMax microplate reader.
(§2) Similar studies were performed over a range of anti-DR5 mAb concentrations from ˜10^−3 nM to ˜10^2 nM. The data for COLO205 cells is provided in FIG. 13, and are representative of cell lines sensitive to the antibodies of the invention.
(§3) The cytotoxicity of tetravalent DR5-Binding Molecules of the present invention was investigated. […] His-tagged TRAIL (R&D systems) was used as a positive control.
(§4) Similar studies were performed over a range of anti-DR5 mAb concentrations from ˜10^−3 nM to ˜10^2 nM.

Hs746T [2] = assay: MTS cell proliferation assay; type: cell-based; conditions: Hs746T (Stomach); no cross-linking antibody
Procedure: as §1, §2, §3, §4

MDA-MB-361 = assay: MTS cell proliferation assay; type: cell-based; conditions: MDA-MB-361 (Breast); no cross-linking antibody
Procedure: as §1, §2, §3, §4

NCI-N87 = assay: MTS cell proliferation assay; type: cell-based; conditions: NCI-N87 (Stomach); no cross-linking antibody
Procedure: as §1, §2, §3, §4

786O [3] = assay: MTS cell proliferation assay; type: cell-based; conditions: 786O (Kidney); no cross-linking antibody
Procedure: as §1, §2, §3, §4

MDA-MB-175VII = assay: MTS cell proliferation assay; type: cell-based; conditions: MDA-MB-175VII (Breast); no cross-linking antibody
Procedure: as §1, §2, §3, §4

22RV1 = assay: MTS cell proliferation assay; type: cell-based; conditions: 22RV1 (Prostate); no cross-linking antibody
Procedure: as §1, §2, §3, §4

BT474 = assay: MTS cell proliferation assay; type: cell-based; conditions: BT474 (Breast); no cross-linking antibody
Procedure: as §1, §2, §3, §4

AsPC1 = assay: MTS cell proliferation assay; type: cell-based; conditions: AsPC1 (Pancreas); no cross-linking antibody
Procedure: as §1, §2, §3, §4

SW48 = assay: MTS cell proliferation assay; type: cell-based; conditions: SW48 (Colon); no cross-linking antibody
Procedure: as §1, §2, §3, §4

SW948 = assay: MTS cell proliferation assay; type: cell-based; conditions: SW948 (Colon); no cross-linking antibody
Procedure: as §1, §2, §3, §4

MDA-MB-231 = assay: MTS cell proliferation assay; type: cell-based; conditions: MDA-MB-231 (Breast); no cross-linking antibody
Procedure: as §1, §2, §3, §4

A498 = assay: MTS cell proliferation assay; type: cell-based; conditions: A498 (Kidney); no cross-linking antibody
Procedure: as §1, §2, §3, §4

HT29 = assay: MTS cell proliferation assay; type: cell-based; conditions: HT29 (Colon); no cross-linking antibody
Procedure: as §1, §2, §3, §4

CaKi2 = assay: MTS cell proliferation assay; type: cell-based; conditions: CaKi2 (Kidney); no cross-linking antibody
Procedure: as §1, §2, §3, §4

DU145 = assay: […]-GLO cell viability assay with vorinostat; type: cell-based, human; conditions: DU145 (Prostate); 1 μg/ml + 10 μM Vorinostat
MCF7 = assay: […]-GLO cell viability assay with vorinostat; type: cell-based; conditions: MCF7 (Breast); 1 μg/ml + 10 μM Vorinostat
COLO205 = assay: MTS cell proliferation assay; type: cell-based; conditions: COLO205 (Colon); no cross-linking antibody
Procedure: as §1, §2, §3, §4
His-tagged TRAIL (R&D systems) was used as a positive control.

Calu3 = assay: […]-GLO cell viability assay with vorinostat; type: cell-based; conditions: Calu3 (Lung); 1 μg/ml + 1 μM Vorinostat
[4] = test system: normal tissue (colon, liver, lung, pancreas, kidney, heart); assay: tissue staining with labeled molecule; type: binding; conditions: 0.625 μg/mL
Text: (§5) The results presented in FIGS. 15A-15B, 16, and Table 10, thus indicate that a tetravalent DR5-Binding Molecule (bispecific for two epitopes of DR5) was capable of specifically binding to cancer cells.

prostate cancer tissue = assay: tissue staining with labeled molecule; type: binding; conditions: 0.625 μg/mL
Text: as §5

breast cancer tissue = assay: tissue staining with labeled molecule; type: binding; conditions: 0.625 μg/mL
Text: as §5

colon cancer tissue = assay: tissue staining with labeled molecule; type: binding; conditions: 0.625 μg/mL
Text: as §5

lung cancer tissue = assay: tissue staining with labeled molecule; type: binding; conditions: 0.625 μg/mL
Text: as §5

HPAFII = assay: […]-GLO cell viability assay with vorinostat; type: cell-based; conditions: HPAFII (Pancreas); 1 μg/ml + 10 μM Vorinostat
Lung = assay: histology staining (Table 10); type: binding; conditions: 0.625 ug/mL
Text: as §5

Pancreas = assay: histology staining (Table 10); type: binding; conditions: Pancreas (6N); 0.625 ug/mL
Text: as §5

786O [5] = assay: […]-GLO cell viability assay with vorinostat; type: cell-based; conditions: 786O (Kidney); 1 μg/ml + 1 μM Vorinostat

Row | Molecule | Net Gain (Average % Growth Inhibition) (Hs746T [1]) [%] | % Inhibition (Average) (ES2) [%] | % Inhibition (Average) (Hs746T [2]) [%] | % Inhibition (Average) (MDA-MB-361) [%] | % Inhibition (Average) (NCI-N87) [%] | % Inhibition (Average) (786O [3]) [%] | % Inhibition (Average) (MDA-MB-175VII) [%] | % Inhibition (Average) (22RV1) [%] | % Inhibition (Average) (BT474) [%] | % Inhibition (Average) (AsPC1) [%] | % Inhibition (Average) (SW48) [%] | % Inhibition (Average) (SW948) [%] | % Inhibition (Average) (MDA-MB-231) [%] | % Inhibition (Average) (A498) [%] | % Inhibition (Average) (HT29) [%] | % Inhibition (Average) (CaKi2) [%] | Net Gain (Average % Growth Inhibition) (DU145) [%] | Net Gain (Average % Growth Inhibition) (MCF7) [%] | % Inhibition (Average) (COLO205) [%] | Net Gain (Average % Growth Inhibition) (Calu3) [%] | also measured
1 | B1 | 25.69 | 12.25 | 5.09 | 3.61 | 5.01 | 5.13 | 2.96 | 2.95 | 2.62 | 12.7 | 33.53 | 77.91 | 14.03 | 74.27 | 11.02 | 31.66 | 3.43 | 4.35 | 88.53 | 11.03 | labeling of cells of normal tissue [4]: failed to label; labeling of cells of prostate cancer tissue (prostate cancer tissue): strongly label; labeling of cells of breast cancer tissue (breast cancer tissue): strongly label; labeling of cells of colon cancer tissue (colon cancer tissue): strongly label; labeling of cells of lung cancer tissue (lung cancer tissue): strongly label; Net Gain (Average % Growth Inhibition) (HPAFII): 45.01%; histology observation (Lung; Lung (6N)): Macrophage 2+ (c) rare; endo 2+ (c); histology observation (Lung; Lung, three separate table lines): Endo 1+ (c) very rare; others (—); also recorded: Macrophage 3+ (c, m) occasional;; also recorded: Macrophage 3+ (c) occasional mixed; histology observation (Pancreas): Secreted acinar epi ± (c) very rare; Net Gain (Average % Growth Inhibition) (786O [5]): 13.49%
2 | B2 | 38.78 | 8.44 | 5.94 | 5.35 | 10.62 | 5.62 | 3.36 | 1.83 | 3.96 | 15.01 | 39.81 | 78.33 | 15.24 | 81.47 | 16.2 | 36.9 | 1.32 | 4.96 | 88.89 | 10.13 | Net Gain (Average % Growth Inhibition) (HPAFII): 49.19%; Net Gain (Average % Growth Inhibition) (786O [5]): 21.12%
